Results from publication PMC6664820, “Novel natural and synthetic inhibitors of solute carriers SGLT1 and SGLT2” (Pharmacology Research & Perspectives, 2019).
The whole screen tested about 1,900 compounds, of which about 40 (2%) showed an effect of 50% or more. The list shows a part of the results.

Target: human SGLT1 (hSGLT1) (human, UniProt P13866)
Experiment: primary screen, percent of control activity; higher = less effect of the substance
Set-up: single well
Conditions: 50 µM
How it was run: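 Single-point screen at 50 µmol/L in CHO-hSGLT1 cells, with 160 µmol/L 1-NBD-glucose in glucose-free DMEM for 90 min at 37°C. Fluorescence from isopropanol extracts was calibrated, and CHO wild-type uptake was subtracted. Data are percent of uptake without compound.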

human SGLT1 (hSGLT1), sequence (P13866 whole entry, looked up): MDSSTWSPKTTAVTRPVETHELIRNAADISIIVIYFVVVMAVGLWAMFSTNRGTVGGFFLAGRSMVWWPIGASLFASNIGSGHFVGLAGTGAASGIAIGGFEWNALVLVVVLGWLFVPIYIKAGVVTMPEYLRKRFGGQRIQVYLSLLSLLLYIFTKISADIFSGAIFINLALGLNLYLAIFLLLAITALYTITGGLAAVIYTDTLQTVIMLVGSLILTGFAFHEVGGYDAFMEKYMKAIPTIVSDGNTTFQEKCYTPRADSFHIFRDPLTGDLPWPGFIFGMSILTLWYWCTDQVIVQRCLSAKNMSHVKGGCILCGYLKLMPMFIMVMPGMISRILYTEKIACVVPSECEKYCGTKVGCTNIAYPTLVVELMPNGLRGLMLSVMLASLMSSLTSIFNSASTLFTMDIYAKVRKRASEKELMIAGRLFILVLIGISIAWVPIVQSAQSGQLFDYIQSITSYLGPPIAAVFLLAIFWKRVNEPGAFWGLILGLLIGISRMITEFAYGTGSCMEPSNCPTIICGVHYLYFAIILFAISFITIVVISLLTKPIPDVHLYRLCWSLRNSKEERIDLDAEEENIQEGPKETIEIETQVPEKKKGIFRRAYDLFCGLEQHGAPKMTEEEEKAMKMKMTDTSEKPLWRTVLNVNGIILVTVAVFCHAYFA

| SMILES | NORMALIZED SGLT1 ACTIVITY (%) |
| --- | --- |
| CC(=O)OCC(=O)[C@@]1(O)CCC2C3CCC4=CC(=O)CC[C@]4(C)C3C(=O)C[C@@]21C (stereo partly shown) | 128 |
| COc1ccc(-c2coc3cc(O)ccc3c2=O)c(OC)c1O | 132 |
| Cc1oncc1C(=O)Nc1ccc(C(F)(F)F)cc1 | 253 |
| CCCc1occc(=O)c1/C=C/O | 172 |
| COc1cc2nc(N3CCN(C(=O)c4ccco4)CC3)nc(N)c2cc1OC.Cl | 131 |
| Cc1ccc(C(C)C)c(O)c1C(=O)O | 174 |
| CC(=O)Oc1ccc2c(c1C(C)C)CCC1C(C)(C)CCC[C@]21C (stereo partly shown) | 116 |
| CC(C)/C(O)=C1/C(=O)O[C@@H](c2ccoc2)[C@]2(C)C(O)[C@@H](O)[C@@]34OC5(C)OC67CC(C)(C(O)[C@]6(O)[C@@H](O)[C@]3(O5)C12)[C@H](CC(=O)O)[C@]74C (stereo partly shown) | 89 |
| C[C@@H]1CC[C@@]23CCC4(C)[C@@](C=CC5[C@@]6(C)CC[C@H](O)C(C)(C)C6CC[C@]54C)(OC2=O)C3[C@H]1C (stereo partly shown) | 106 |
| CC1(C)O[C@@H]2C[C@H]3[C@@H]4CCC5=CC(=O)C=C[C@]5(C)[C@@]4(F)[C@@H](O)C[C@]3(C)[C@]2(C(=O)CO)O1 | 156 |
| COC(=O)C[C@H]1C(C)(C)[C@H](O)[C@@H]2CC3=C4CC(O)O[C@@H](c5ccoc5)[C@]4(C)CCC3[C@@]1(C)C2=O (stereo partly shown) | 120 |
| O=C(Nc1ccc([N+](=O)[O-])cc1Cl)c1cc(Cl)ccc1O | 186 |
| CNC(=O)Oc1ccc2c(c1)[C@]1(C)CCN(C)[C@@H]1N2C | 86 |
| COc1cc(NC(C)CCCN)c2ncccc2c1.O=P(O)(O)O.O=P(O)(O)O (stereo not shown) | 128 |
| C[C@H](CCC(=O)O)[C@H]1CC[C@H]2[C@@H]3CC[C@@H]4C[C@H](O)CC[C@]4(C)[C@H]3C[C@H](O)[C@]12C | 114 |
| N[C@@H](C(=O)N[C@@H]1C(=O)N2C(C(=O)O)=C(Cl)CS[C@H]12)c1ccccc1 | 139 |
| O=c1cc(-c2ccc(O)cc2)oc2cc(O[C@@H]3O[C@H](CO)[C@@H](O)[C@H](O)[C@H]3O)cc(O)c12 | 83 |
| CN(C)C(=O)Nc1ccc(Cl)c(Cl)c1 | 127 |
| COc1c(O)cccc1O | 108 |
| Cc1cc(-c2ccccc2)nnc1NCCN1CCOCC1.Cl.Cl | 141 |
| CCC(C)C(=O)O[C@H]1[C@H](O)C2C(CN3CC(C)CCC3[C@@]2(C)O)C2C[C@]34O[C@]5(O)C(OC(=O)C(C)(O)C(C)O)CC[C@@]3(C)C5C(OC(C)=O)[C@@H](OC(C)=O)C4[C@@]21O (stereo partly shown) | 121 |
| CC(CCC(=O)O)[C@H]1CCC2C3CC[C@@H]4C[C@H](O)CC[C@]4(C)C3C=C[C@@]21C (stereo partly shown) | 463 |
| CCOC(=O)n1ccn(C)c1=S | 146 |

| SMILES | NORMALIZED SGLT1 ACTIVITY (%) |
| --- | --- |
| CN1CCC[C@H]1c1cccnc1.O=C(O)C(O)C(O)C(=O)O.O=C(O)C(O)C(O)C(=O)O | 148 |
| COc1ccc(C(C)=O)c(O)c1 | 128 |
| C[C@H](N)[C@H](O)c1cccc(O)c1.O=C(O)[C@H](O)[C@@H](O)C(=O)O | 89 |
| CO/N=C(\C(=O)N[C@@H]1C(=O)N2C(C(=O)O)=C(COC(N)=O)CS[C@H]12)c1ccco1 | 92 |
| C[C@@H](N)[C@@H](O)c1ccccc1 | 142 |
| CCC(=O)c1c(O)cc(O)cc1O | 167 |
| C/C=C(/C)C(=O)O[C@H]1CC[C@@]2(C)[C@@H]3CC[C@H]4[C@]5(O)C[C@H](O)[C@@]6(O)[C@@H](CN7C[C@@H](C)CC[C@H]7[C@@]6(C)O)[C@]5(O)C[C@@]42O[C@]13O.O=S(=O)(O)O | 138 |
| NC1C[C@H]1c1ccccc1.O=S(=O)(O)O (stereo partly shown) | 92 |
| NCCc1ccc(O)cc1 | 93 |
| NC(COCc1ccccc1)C(=O)O (stereo not shown) | 95 |
| COC(=O)C[C@H]1C2(C)CC34OC5(C)O[C@@]6([C@H](OC(C)=O)C(OC(C)=O)[C@]7(C)C(/C(=C(/O)C(C)C)C(=O)O[C@H]7c7ccoc7)[C@@]6(O5)[C@H](OC(C)=O)[C@@]3(O)C2OC(=O)C(C)C)[C@]14C (stereo partly shown) | 155 |
| CC1(C)C2CC[C@]3(C)C(C(=O)C=C4[C@H]5C[C@@](C)(C(=O)O)CC[C@]5(C)CC[C@]43C)[C@@]2(C)CC[C@@H]1O (stereo partly shown) | 148 |
| Cc1cc(O)c2c(c1O)C(=O)c1c(O)cc(C)c(O)c1C2=O | 127 |
| CN[C@@H](C)[C@@H](O)c1ccccc1.Cl | 120 |
| C=C(C)C1CNC(C(=O)O)C1CC(=O)O (stereo not shown) | 112 |
| CC1(C)CC[C@]2(C(=O)O)CC[C@]3(C)C(=CC[C@@H]4[C@@]5(C)CC[C@H](O)[C@@](C)(CO)[C@@H]5CC[C@]43C)[C@@H]2C1 | 248 |
| CC1(C)C=Cc2c(cc3occ(-c4ccc5c(c4)OCO5)c(=O)c3c2O)O1 | 100 |
| CN(C)CCCN1c2ccccc2Sc2ccccc21.Cl | 38 |
| CCC(C)C(=O)O[C@H]1[C@H](O)C2C(CN3CC(C)CCC3[C@@]2(C)O)C2C[C@]34O[C@]5(O)C(OC(=O)C(C)(O)CC)CC[C@@]3(C)C5C(OC(C)=O)[C@@H](OC(C)=O)C4[C@@]21O (stereo partly shown) | 114 |
| C=CC(N)CCC(=O)O (stereo not shown) | 105 |
| O=C(O)c1cc2cc(F)ccc2[nH]1 | 103 |
| O=C1OCCN1/N=C/c1ccc([N+](=O)[O-])o1 | 123 |
| Cl.c1ccc2c(c1)CCCC2C1=NCCN1 (stereo not shown) | 98 |
